Among all 310,000 compounds or so, about 14,000 (4.5%) showed an effect of 50% or more. The effect is printed as a negative number. This is one part of the list.
molecular target: human ether-à-go-go-related gene (hERG) potassium channel (human, UniProt Q12809); experiment: primary screen, population patch clamp on CHO cells stably expressing hERG
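Further: peak tail current of the secondary pulse compared with the same well before compound.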

Sequence of human ether-à-go-go-related gene (hERG) potassium channel (Q12809 whole entry, looked up): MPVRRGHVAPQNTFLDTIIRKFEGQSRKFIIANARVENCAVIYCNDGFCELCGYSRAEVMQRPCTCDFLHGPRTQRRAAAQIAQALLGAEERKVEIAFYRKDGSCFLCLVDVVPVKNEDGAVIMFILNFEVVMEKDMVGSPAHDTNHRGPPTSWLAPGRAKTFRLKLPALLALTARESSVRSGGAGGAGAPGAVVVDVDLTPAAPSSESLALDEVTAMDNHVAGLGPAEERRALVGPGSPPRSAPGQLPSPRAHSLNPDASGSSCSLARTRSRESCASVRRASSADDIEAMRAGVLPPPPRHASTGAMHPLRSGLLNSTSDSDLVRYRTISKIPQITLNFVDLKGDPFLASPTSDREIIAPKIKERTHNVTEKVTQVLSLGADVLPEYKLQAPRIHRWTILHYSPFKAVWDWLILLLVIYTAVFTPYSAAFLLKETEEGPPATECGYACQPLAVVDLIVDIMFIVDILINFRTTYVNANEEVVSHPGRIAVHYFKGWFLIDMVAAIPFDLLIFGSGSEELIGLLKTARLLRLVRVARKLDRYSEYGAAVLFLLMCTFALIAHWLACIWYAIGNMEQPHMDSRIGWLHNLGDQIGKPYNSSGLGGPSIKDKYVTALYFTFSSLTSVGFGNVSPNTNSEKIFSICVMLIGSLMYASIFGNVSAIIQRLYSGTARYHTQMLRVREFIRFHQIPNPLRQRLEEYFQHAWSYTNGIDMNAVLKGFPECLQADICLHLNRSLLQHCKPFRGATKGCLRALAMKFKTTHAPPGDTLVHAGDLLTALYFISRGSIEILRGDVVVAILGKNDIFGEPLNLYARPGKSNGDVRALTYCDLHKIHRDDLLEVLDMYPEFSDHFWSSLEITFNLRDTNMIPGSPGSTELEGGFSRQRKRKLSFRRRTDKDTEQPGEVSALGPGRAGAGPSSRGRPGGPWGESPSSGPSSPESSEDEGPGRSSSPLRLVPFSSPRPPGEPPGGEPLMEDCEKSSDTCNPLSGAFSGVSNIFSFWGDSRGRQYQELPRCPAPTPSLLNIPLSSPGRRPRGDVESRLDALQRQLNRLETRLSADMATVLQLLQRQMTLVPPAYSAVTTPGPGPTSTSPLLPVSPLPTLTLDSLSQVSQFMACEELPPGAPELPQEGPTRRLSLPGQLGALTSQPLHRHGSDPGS

Compound	hERG current change (%, negative = inhibition) at 10uM [%]
CCCN1C2CCCC1CC(NC(=O)c1ccc(F)cc1)C2 (stereo not shown)	-55.3
COc1ccc2nc(C)cc(N/N=C/c3ccc(F)cc3)c2c1	0.337
CN(C)CCCN(C(=O)COc1ccc(Cl)cc1)c1nc2c(F)cccc2s1.Cl	-67.1
Cc1cc(Br)ccc1SCC(=O)OCC(=O)NC1CC1	22.5
Cc1cc(OCCCCOc2ccc(S(N)(=O)=O)c(C)c2)ccc1S(N)(=O)=O	13.4
Cc1noc(C)c1S(=O)(=O)NCC(=O)O	10.6
COc1cc(C(=O)Nc2cnc(NC(=O)C(C)C)cc2C)cc(OC)c1OC	15.4
Cc1cc(NC(=O)COC(=O)[C@@H](NS(=O)(=O)c2ccccc2)C(C)C)no1	-7.67
COC(=O)CCCC(=O)N1CCC(CO)(CCc2ccccc2)CC1	-23.8
O=C(Nc1c2c(nn1-c1ccc(F)cc1)CS(=O)C2)c1ccc(S(=O)(=O)N2CCOCC2)cc1 (stereo not shown)	21.9
CC(=O)Nc1ccc(/C=N/NS(=O)(=O)c2cc(C)ccc2C)cc1	-44.6
O=c1cc(-c2ccccc2)n(S(=O)(=O)c2ccccc2)o1	6.78
COc1cc(NC(=O)CN(C)Cc2ccc(OC(F)F)cc2)c(C)cc1[N+](=O)[O-]	-28.8
Cc1cc(NC(=O)COc2coc(CN3CCN(c4ccc(F)cc4)CC3)cc2=O)no1	-36.5
CC1(C)CCC(=O)N2CC[C@H]3C[C@H](OC(=O)Nc4ccc5c(c4)OCO5)C[C@@H]1[C@H]32	-0.41
COc1ccc(C(=O)Nc2nc(C)cc(C)n2)cc1[N+](=O)[O-]	-7.34
Cc1cscc1NC(=O)/C=C/C(=O)O	2.91
CCCCCOc1ccc(C(=O)NC(CCC)C(=O)O)cc1 (stereo not shown)	-1.3
O=C(N/N=C/c1ccco1)C1CC1(c1ccccc1)c1ccccc1 (stereo not shown)	-2.06
CNC(=O)c1ccccc1NC(=O)C1CC(=O)N(C(C)C)C1 (stereo not shown)	13.8

Compound	hERG current change (%, negative = inhibition) at 10uM [%]
COC(=O)c1ccc2c(=O)[nH]c(CCl)nc2c1	10.7
O=C(COc1ccc2c(c1)CCC2)N1CCN(c2ccc(F)cc2)CC1	-2.53
Brc1ccc(-c2cnc(-c3cccs3)o2)cc1	-3
Cc1ccc(C(=O)OCC(=O)Nc2ncc(Cl)cc2Cl)cc1NC(=O)c1ccco1	-48.7
CCc1cc2c(=O)[nH]c(CC(N)=O)nc2s1	13.2
COc1cc(OC)c(CN2CCCCCCC2)cc1Br	-22.4
COC(=O)C(NC(=O)CNS(=O)(=O)c1ccc(Br)cc1)c1ccccc1 (stereo not shown)	-4.73
O=C(/C=C/c1ccccc1Cl)NC(=S)Nc1ccccc1C(=O)NC1CCCCC1	8.87
COc1ccc2c(c1)c(N=O)c(O)n2C	13.8
Fc1ccc(-n2nnc(-c3ccccc3)n2)cc1	10.8
CC(=O)NC(c1cccs1)c1cc([N+](=O)[O-])c2cccnc2c1O (stereo not shown)	24.6
CC(C)c1ccc(NC(=S)NNC(=O)C2CC2)cc1	15
CCCC(=O)Nc1nnc(-c2ccc3c(c2)OCO3)s1	6.35
Cc1cccc(-c2noc(-c3ccc(Cl)cc3[N+](=O)[O-])n2)c1	16.8
COc1ccc(Cc2nc3ccccc3c(=O)n2N)cc1OC	9.36
O=C(C(=O)N1CCN(c2ccc([N+](=O)[O-])cc2)CC1)c1cn(CC(=O)N2CCOCC2)c2ccccc12	-8.72
Cc1cccc(NCC(=O)N/N=C/c2ccc(Br)cc2)c1	20.1
CC(Nc1c[nH]c(=O)[nH]c1=O)c1ccccc1 (stereo not shown)	14.8
COc1ccc(/C=C(/NC(=O)c2ccccc2)C(=O)N2CCCCC2)cc1OC	-7.13
O=C(O)CC1NC(=O)N(C2CCCCC2)C1=O (stereo not shown)	6.18

Compound	hERG current change (%, negative = inhibition) at 10uM [%]
NC(=O)CN(c1ccccc1)C1SC(=O)N(Cc2ccccc2)C1=O (stereo not shown)	-7.07
S=C(Nc1ccc(Cl)cc1)c1sc(N2CCCCC2)nc1N1CCOCC1	16.8
CC1CCC(C(C)C)C(OP(=O)(c2ccccc2)C(O)c2ccncc2)C1 (stereo not shown)	13.8
CC(=O)N1CCN(Cc2cc(=O)n3cc(Cl)c(C)c(Cl)c3n2)CC1	-3.72
CC(C)(C)C(=O)Nc1ccc(S(=O)(=O)N2CC3CC(C2)c2cccc(=O)n2C3)cc1 (stereo not shown)	9.99
O=S(=O)(c1ccccc1)N1CCN(C(c2ccccc2)c2ccc(OC(F)(F)F)cc2)CC1 (stereo not shown)	19
Cc1cc(NC(=O)CCC(=O)N(CC2CCCO2)C(C(=O)NC2CCCC2)c2cccnc2)no1 (stereo not shown)	12.9
CCCCn1c(=O)[nH]c(=O)c2c1nc(-c1ccccc1F)n2Cc1ccccc1	9.61
CCCCNC(=O)NNC(=O)c1ccc(F)cc1	0.168
CCN1CCSc2ccc(C(=O)NCc3ccccc3F)cc21	-20.8
O=C(CNC(=O)c1cccc(F)c1)N/N=C/c1cccnc1	6.58
O=C1C(NS(=O)(=O)c2cccs2)=C(N2CCN(Cc3ccccc3)CC2)C(=O)c2ccccc21	-35.2
CCC(CC)=NNc1cccc([N+](=O)[O-])c1	16.9
O=C1c2ccccc2C(=O)N1CCC#Cc1ccc2cc(CCO)oc(=O)c2c1	15.7
COc1ccc(-c2cn(-c3ccc(C)cc3C)c(=O)[nH]2)cc1OC	5.96
Cc1ccc(C)c(N2CCN(S(=O)(=O)c3cccc4cccnc34)CC2)c1	-22.9
Cc1ccccc1SCC(=O)NCCCn1ccnc1	-18.8
CCC(C(=O)OCC(=O)NC(=O)c1ccccc1OC)c1ccccc1 (stereo not shown)	10.6
